# Laboratory results from article PMC4336329 (PLoS ONE, 2015).
# Among all 310,000 compounds or so, about 14,000 (4.5%) showed an effect of 50% or more. Effects have a minus sign here. This is one part of the list.
# Molecular target: human ether-à-go-go-related gene (hERG) potassium channel (human, UniProt Q12809)
# Assay: primary screen, population patch clamp on CHO cells stably expressing hERG
# 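Also: peak tail current of the secondary pulse compared with the same well before compound.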
# human ether-à-go-go-related gene (hERG) potassium channel, sequence (Q12809 whole entry, looked up): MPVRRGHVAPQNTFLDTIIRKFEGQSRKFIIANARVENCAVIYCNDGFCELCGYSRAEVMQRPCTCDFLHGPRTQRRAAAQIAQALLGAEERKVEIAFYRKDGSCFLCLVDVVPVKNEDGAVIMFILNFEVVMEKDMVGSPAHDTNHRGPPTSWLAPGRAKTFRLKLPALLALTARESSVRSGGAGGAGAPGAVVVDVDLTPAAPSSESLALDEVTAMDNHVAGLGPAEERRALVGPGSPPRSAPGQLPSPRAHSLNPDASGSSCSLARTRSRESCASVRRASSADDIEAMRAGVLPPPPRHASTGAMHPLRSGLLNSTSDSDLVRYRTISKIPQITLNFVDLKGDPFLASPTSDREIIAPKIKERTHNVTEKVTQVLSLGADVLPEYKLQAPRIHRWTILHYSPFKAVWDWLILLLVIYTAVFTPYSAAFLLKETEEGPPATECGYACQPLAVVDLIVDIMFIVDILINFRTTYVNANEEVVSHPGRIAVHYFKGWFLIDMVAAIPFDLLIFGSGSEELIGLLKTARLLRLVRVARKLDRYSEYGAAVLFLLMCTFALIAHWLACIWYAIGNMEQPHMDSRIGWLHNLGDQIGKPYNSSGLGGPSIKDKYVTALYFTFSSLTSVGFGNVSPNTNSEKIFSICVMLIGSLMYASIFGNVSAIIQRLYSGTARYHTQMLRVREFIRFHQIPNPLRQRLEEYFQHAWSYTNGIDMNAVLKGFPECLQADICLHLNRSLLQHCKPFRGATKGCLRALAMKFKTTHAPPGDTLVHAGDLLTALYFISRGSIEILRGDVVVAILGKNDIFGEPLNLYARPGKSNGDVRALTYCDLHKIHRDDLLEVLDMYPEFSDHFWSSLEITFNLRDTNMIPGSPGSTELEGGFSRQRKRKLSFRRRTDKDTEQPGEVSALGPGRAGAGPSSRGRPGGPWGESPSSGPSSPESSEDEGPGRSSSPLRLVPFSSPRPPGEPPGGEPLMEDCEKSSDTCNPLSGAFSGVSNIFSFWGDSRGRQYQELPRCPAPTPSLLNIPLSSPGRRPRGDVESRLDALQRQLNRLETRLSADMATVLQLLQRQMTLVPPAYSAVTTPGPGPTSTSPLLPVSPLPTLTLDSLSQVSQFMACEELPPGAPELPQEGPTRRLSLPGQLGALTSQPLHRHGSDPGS
row,SMILES,"hERG current change (%, negative = inhibition) at 10uM [%]"
1,CC(C)[C@H](NC(=O)Nc1cccc(Br)c1)C(=O)O,-8.58
2,O=C1CC(C(F)(F)C(F)(F)C(F)(F)C(F)F)=Nc2ccccc2N1,-16.8
3,CCCc1cc(=O)oc2cc(OCc3cccc(OC)c3)c(Cl)cc12,9.7
4,CN1CCc2c(c3ccccc3n2C)C1.Cl,11.4
5,CC(C)(C)N(NC(=O)c1ccccc1)C(=O)c1ccc(C(=O)N(NC(=O)c2ccccc2)C(C)(C)C)cc1,1.81
6,COC(=O)c1c(-c2snnc2C)n[nH]c1C,-0.281
7,C/C(=N\NC(=O)Cc1cccn1C)c1ccco1,17.9
8,COc1ccccc1/C=C/C=N/NC(=O)Cc1cccn1C,-4.88
9,Cc1cc2nnn(-c3nnc(-c4ccccc4)c4ccccc34)c2cc1C,7.19
10,COCCSc1ccccc1C(=O)Nc1ccc2c(c1)OCCO2,5.7
11,CC(=O)Nc1ccc(Oc2nc(-c3ccccn3)nc3ccccc23)cc1,-7.53
12,COC(=O)c1sc2ccccc2c1NC(=O)c1ccc(S(=O)(=O)N2CCCCC2C)cc1 (stereo not shown),4.64
13,Cc1nn(CC(=O)NCc2ccc(C(=O)O)cc2)c(C)c1[N+](=O)[O-],21.5
14,O=C(COc1coc(CN2CCc3ccccc32)cc1=O)Nc1cccc(F)c1,11.9
15,COc1cccc(CNC(=O)COc2cccc3c2OC(C)(C)C3)c1,-14.4
16,CCOc1ccccc1CN1CCN(Cc2ccc3cccc(OC)c3n2)CC1CCO (stereo not shown),-55.5
17,O=C(COC(=O)CNC(=O)c1ccccc1)Nc1nc(-c2ccccc2)cs1,-6.07
18,Cc1oc(-c2ccccc2F)nc1CS(=O)(=O)CC(=O)NCCCN1CCN(C)CC1,1.66
19,O=S(=O)(c1ccc(Br)cc1)N1CCCN(Cc2cccc(F)c2)CC1,-17.9
20,COc1cc2c(cc1OC)C1=C(C#N)CN(CC(=O)O)CN1CC2,10.5
21,O=C(NCc1ccc(F)cc1)c1ccc[nH]1,14.1
22,COC(=O)[C@@H](NC(=O)c1cc(COc2cncc(Cl)c2)on1)c1ccccc1,-4.11

row,SMILES,"hERG current change (%, negative = inhibition) at 10uM [%]"
1,Cc1ccc(C(=O)OCC(=O)NC(=O)c2ccc(C(C)(C)C)cc2)c(O)c1,9.52
2,O=C(OCc1nnc(-c2ccccc2)o1)c1cc([N+](=O)[O-])ccc1Cl,9.98
3,CCC(C)[C@H](NC(=O)NCc1ccccc1Cl)C(=O)O (stereo partly shown),6.86
4,CCOc1ccc(NC(=O)C2CCCN(c3nc(C)cc(C)n3)C2)cc1 (stereo not shown),12.4
5,CCOc1ccc(CNC(=O)Nc2ccccc2)cc1,16.3
6,CCCCC(=O)Nc1cc(C(=O)NCCc2ccccc2)ccc1Cl,-17.9
7,C[C@H](NC(=O)[C@H](Cc1ccccc1)n1c(=O)[nH]c2ccccc2c1=O)C(=O)N1CCC(C(=O)O)CC1,4
8,COc1ccc(CCNC(=O)CCN2C(=O)C3CC=CCC3C2=O)cc1OC (stereo not shown),7.71
9,CCOc1ccc(/C=C2\C(=O)c3ccccc3OC2c2ccccc2)cc1 (stereo not shown),13.2
10,O=C(Cn1nnc(-c2ccccc2NC(=O)c2ccco2)n1)Nc1ccccc1,16.1
11,CCCCCn1c(=O)[nH]c2c(c1=O)CCC2,-1.5
12,O=C(NCc1nc(-c2ccccc2)no1)c1ccc2c(c1)OCO2,7.46
13,O=C(c1ccc(Br)o1)N1CCC(Cc2ccccc2)CC1,-10.5
14,COCCn1c(=O)sc2ccccc2c1=O,12
15,COC(=O)[C@H](CC(C)C)NC(=O)N1CCC(C)CC1,16.7
16,C=CCN1C(=O)/C(=N/n2cnnc2)c2ccccc21,27
17,CCc1nnc(NC(=O)CCC(=O)NC2CCCc3ccccc32)s1 (stereo not shown),-7.77
18,O=C(Nc1cccc2ncccc12)c1cccc(F)c1,-11.1
19,COc1ccccc1C(=O)NNC(=O)c1ccc(Br)o1,14
20,O=C(c1cc2cc(Cl)ccc2oc1=O)N1CCOCC1,1.82
21,Cl.NCCCC[C@H](NC(=O)C1CCNCC1)c1nnc([C@@H](N)Cc2ccc(O)cc2)o1,17.5
